The text below walks through data of PubChem BioAssay AID485344 (National Center for Advancing Translational Sciences (NCATS), 2010).

Several values for one entry are separate records, joined by “and”; a condition that tells them apart may be missing. Identical values can stand only once. Among all 340,000 compounds or so, about 6,900 (2%) were called active. Rule as the data show it: active = inhibition above about 30%; inactive = below that, where a call was filed. Only a part is listed here, and it is no random draw. Entries without a call were filed so in the source.

UniProt P14416, sequence (P14416 whole entry, looked up): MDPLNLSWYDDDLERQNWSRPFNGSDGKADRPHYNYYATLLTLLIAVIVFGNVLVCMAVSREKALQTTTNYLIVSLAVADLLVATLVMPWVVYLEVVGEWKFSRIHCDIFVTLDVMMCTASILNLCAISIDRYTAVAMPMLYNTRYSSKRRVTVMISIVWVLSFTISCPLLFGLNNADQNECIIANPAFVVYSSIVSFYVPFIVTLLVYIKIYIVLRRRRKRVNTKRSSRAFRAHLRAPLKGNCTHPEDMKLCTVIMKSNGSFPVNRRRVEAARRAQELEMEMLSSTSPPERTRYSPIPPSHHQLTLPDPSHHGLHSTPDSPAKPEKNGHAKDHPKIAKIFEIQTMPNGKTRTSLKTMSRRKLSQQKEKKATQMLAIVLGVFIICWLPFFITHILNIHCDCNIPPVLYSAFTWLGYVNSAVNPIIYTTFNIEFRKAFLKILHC

For the test, the target named is D(2) dopamine receptor (Homo sapiens) (UniProt P14416). The test can be described thus: HTS Assay for Allosteric Antagonists of the Human D2 Dopamine Receptor: Primary Screen for Antagonists. Also: 0% is about no effect. The conditions noted are these: HEK293 TREx D2 cells, calcium flux, dopamine EC80; at 10 µM; stronger effect = higher value. In short, it runs like this:
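Read-out: kinetic calcium fluorescence (1 cycle/s) in inducible HEK293 T-REx D2 cells after an EC80 dopamine addition that followed 180 s compound preincubation. Loss of the dopamine response indicates antagonism.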
Regarding `CN1CCN(CCCNC(=O)c2ccc3nc(Cc4ccccc4)oc3c2)CC1`, the inhibition (as a rule, the relative decrease from the control value, in per cent) is 6.68%.

Turning to `CCC12CN3CC(CC)(CN(C1)C3c1cc(Br)ccc1OC)C2=O` (stereo unspecified), the inhibition was -7.14%. With `CCn1cc(C(=O)NCc2ccc(C)cc2)c(=O)c2cc(S(=O)(=O)N3CCc4ccccc4C3)ccc21`, the inhibition was found to be 16%. On to `Cc1nc(-c2ccc(S(=O)(=O)N3CCN(c4ccc(F)cc4)CC3)cc2)co1`, for which the inhibition is -1.38%. For `CCOCCCNC(=O)C(=O)Nc1c2c(nn1-c1ccc(OC)cc1)CSC2`, the inhibition was -19.5%. Under `Cc1ccc2c(=O)c(C(=O)c3ccc(F)cc3)cn(CC(=O)NCCc3ccccc3)c2n1` stands 0.342%; under `COc1ccc(S(=O)(=O)Nc2cc3c(cc2NCc2ccccc2)n(C)c(=O)n3C)cc1`, 10.7%.

Regarding `CCOc1ccc(C(=O)Nc2ccc3oc(-c4cccnc4)nc3c2)cc1`, the inhibition was -7.37%. For `Cc1cc(C)cc(NC(=O)C2CCN(S(=O)(=O)c3ccc4[nH]c(=O)ccc4c3)CC2)c1`, the inhibition is active: 31.2%.

As to `COc1ccc(CN(Cc2ccco2)c2cnc(S(C)(=O)=O)nc2C(=O)Nc2ccc(C)cc2C)cc1`, the inhibition is -23.3%. Take `Cc1cccc(OCCCn2c(CCNC(=O)C(C)(C)C)nc3ccccc32)c1`: the inhibition was -5.11%. `CCn1cc2nc(SCc3cc(C)ccc3C)n(Cc3ccc(OC)cc3)c(=O)c2n1`: the inhibition is -8.74%. Take `Cc1cccc(OCCSc2nc3ccc(NC(=O)COc4ccccc4)cc3s2)c1`: the inhibition was 18.4%.

For the compound `COc1cccc(S(=O)(=O)Nc2cccc(C(=O)N3CCOCC3)c2)c1`, the inhibition was active: 36.1%. On to `Cc1ccc(NC(=O)Nc2ccc3snnc3c2)cc1C`, for which the inhibition is -2.08%. Turning to `O=C(NCc1ccco1)c1ccc2c(c1)N(Cc1ccc(Cl)cc1)C(=O)c1ccccc1S2=O` (stereo unspecified), the inhibition worked out at 3.28%. Regarding `CCOC(=O)c1ccc(NC(=O)CC2C(=O)OCCN2CC)cc1` (stereo unspecified), the inhibition was active: 47.7% and -6.3%. Regarding `CCN(C(=O)C1CCCN(S(=O)(=O)c2c(C)noc2/C=C/N(C)C)C1)c1cccc(C)c1` (stereo unspecified), the inhibition was -2.89%.

With `CCc1ccc(CN(Cc2ccco2)c2cnc(S(C)(=O)=O)nc2C(=O)Nc2ccccc2Cl)cc1`, the inhibition worked out at 25.1%. As for `COC(=O)c1scc(-c2ccc(C)cc2)c1S(=O)(=O)N1CCN(c2cccc(OC)c2)CC1`, the inhibition was determined as 13.7%.

For `Cc1ccc(Sc2c(C)nn(C(C)(C)C)c2OC(=O)C(C)(C)C)cc1`, the inhibition was 5.24%. Turning to `CCc1nnc(SC(CC)C(=O)Nc2cccc(OC)c2)c2cc3oc(C)cc3n12` (stereo unspecified), the inhibition was determined as 17.9%. With `Cc1ccc(CNC(=O)CC(C)S(=O)(=O)c2cc3c(cc2C)NC(=O)CO3)cc1` (stereo unspecified), the inhibition worked out at 0.351%. For `CSC1=NC2(CCN(C(=O)NC3CCCCC3)CC2)N=C1c1ccc(C)c(C)c1`, the inhibition was -3.07%. Under `Cc1ccc(NC(=O)CCc2nnc3n(C)c(=O)c4sccc4n23)cc1C` stands 9.74%. As for `CC(C)Oc1ccc(C(=O)N(Cc2ccco2)c2ccccn2)cc1`, the inhibition was -10.5%.
